Results reported in patent publication US20130158112A1, “COMPOSITIONS AND METHODS FOR INHIBITING BETA AMYLOID SECRETION” (priority 2011, published 2013).
Where “and” joins values, the source holds several entries; their conditions need not be identical. Equal values may be shown once. For some assays here: At least one read-out could not be matched to a standard name with certainty. Some results were stated once for a whole list of compounds, not compound by compound.

Assays:
Caco-2 cells = experiment: Epithelial transcellular transport of drug activity through Caco-2 monolayers; format: in vitro ADME; details: lower chamber media after 4 h on Caco-2 monolayer; 10 μM if in equilibrium
Description: (§1) H4βAPP695 wt cells, a human […] cell line stably transfected with a wtβAPP695 expression vector construct under the control of a CMV promoter (kindly provided by Dr. Chris Eckman from Mayo Clinic, Florida) were cultured as previously described. Twenty-four hours before drug treatment, the media was replaced with serum-free media. Cells were then incubated with drugs (dissolved in DMSO) or vehicle for 24 h for collection of conditioned media and cell lysates. For the PKC inhibitors experiment, three inhibitors were treated 30 min prior to drug challenge. Primary cortical neurons were prepared from embryonic day 18 APP and presenilin 1 (APPswe, PSEN1dE9) transgenic mice on the C57BL/6 genetic background (Jackson Laboratories, strain no. 5864) as previously described. THLE-3 human hepatoma cells (from ATCC) were plated in 24-well plates that were precoated with 10 μg/mL bovine serum albumin, 10 μg/mL fibronectin, and 30 μg/mL bovine type I collagen. The cells were grown in BEGM media (Clonetics) until confluent and treated with drugs at 20 μM for 24 h. This conditioned media was harvested, diluted 1:1 in serum-free medium, and incubated with H4βAPP695 wt cells for 24 h prior to analysis of secreted Aβ, which was compared to the effect of 10 μM drug treatments without prior incubation with the THLE-3 cells. Caco-2 cells (ATCC) were plated in 12-well plates with Transwell inserts (Costar) at 70000 cells per well and grown for 21 days. The media volume of the apical and basal chambers was 0.5 and 1.5 mL, respectively. Transepithelial resistance was measured in each well and found to be >160 Ω/cm^2. Drugs at 40 μM and 20 μg/mL of lucifer yellow were added in serum-free medium to the apical chamber. Four hours later, the basal chamber media was harvested and used to measure lucifer yellow fluorescence to confirm monolayer integrity as well as for treatment of H4βAPP695 wt cells for 24 h prior to analysis of secreted Aβ, which was compared to the effect of direct addition of 10 μM of the corresponding drug.
Monolayer integrity was confirmed by high levels of transcellular electrical resistance (>160 ohms/cm^2) and by transcellular impermeability to the fluorescent dye lucifer yellow. […] The concentration of each compound added to the upper chamber would lead to 10 μM in the lower chamber if equilibration was complete, and thus the activity of the lower chamber media was compared to the activity of 10 μM drug added directly to the H4βAPP695 wt cells. […] Compound 1 crossed the monolayer and the bottom chamber media led to a 27% reduction in Aβ production, yielding 38% of the theoretical activity. The compound with the most activity in the lower chamber was compound 48, which decreased Aβ production by 50%, with 71% of its theoretical activity. […]

Aβ secretion = experiment: Secreted total Aβ ELISA in conditioned media of H4βAPP695 wt cells; format: cell-based, human; details: 24 h
Description: as §1

H4βAPP695 wt cells = experiment: Cytotoxicity by total cell protein content (BCA) of H4βAPP695 wt cells
[1] = system: THLE-3 human hepatoma cells; experiment: Drug activity persistence after incubation with THLE-3 hepatoma cells; format: in vitro ADME; details: 20 μM preincubated 24 h with THLE-3 hepatoma cells, diluted to 10 μM on H4 cells
Description: as §1, with “The cells were grown in BEGM media (Clonetics) until confluent and treated with drugs at 20 μM for 24 h. This conditioned media was harvested, diluted 1:1 in serum-free medium, and incubated with H4βAPP695 wt cells for 24 h prior to analysis of secreted Aβ, which was compared to the effect of 10 μM drug treatments without prior incubation with the THLE-3 cells. Caco-2 cells (ATCC) were plated in 12-well plates with Transwell inserts (Costar) at 70000 cells per well and grown for 21 days. The media volume of the apical and basal chambers was 0.5 and 1.5 mL, respectively.” left out, “Drugs at 40 μM and 20 μg/mL of lucifer yellow were added in serum-free medium to the apical chamber.” left out, “drug. […]” for “drug.”

| SMILES | transcellular transport Yes total Aβ (% decrease) (Caco-2 cells) [%] | Total Aβ (% decrease) 10 μM Mean (Aβ secretion) | Cell protein (% decrease) 30 μM Mean (H4βAPP695 wt cells) [%] | hepatoma incubation Yes total Aβ (% decrease) [1] [%] |
| --- | --- | --- | --- | --- |
| O=C(NCCSCc1cccc(Cl)c1)c1c(Cl)cccc1Cl [Compound 1] | 26.7 | – | – | – |
| COc1cccc(CSCCNC(=O)c2c(Cl)cccc2Cl)c1 [Compound 27, 2,6-dichloro-N-[2-(3-methoxy-benzylsulfanyl)-ethyl]-benzamide] | – | 60.6% | – | – |
| O=C(NCCSCc1cccc(O)c1)c1c(Cl)cccc1Cl [Compound 29, 2,6-dichloro-N-[2-(3-hydroxy-benzylsulfanyl)-ethyl]-benzamide] | – | 56.4% | – | – |
| O=C(NCCSCc1cccc([N+](=O)[O-])c1)c1c(Cl)cccc1Cl [Compound 40, 2,6-Dichloro-N-[2-(3-nitro-benzylsulfanyl)-ethyl]-benzamide] | – | 58.5% | > 20 | – |
| Cc1cccc(CSCCNC(=O)c2c(Cl)cccc2Cl)c1 [Compound 48, 2,6-Dichloro-N-[2-(3-methyl-benzylsulfanyl)-ethyl]-benzamide] | 49.9 | > 50% and 70.5% | – | 38.3 |
| O=C(NCCSCc1cccc(C(F)(F)F)c1)c1c(Cl)cccc1Cl [Compound 50, 2,6-Dichloro-N-[2-(3-trifluoromethyl-benzylsulfanyl)-ethyl]-benzamide] | – | > 50% and 73.9% | – | – |
| O=C(NCCSCc1cccc(Br)c1)c1c(Cl)cccc1Cl [Compound 51, N-[2-(3-Bromo-benzylsulfanyl)-ethyl]-2,6-dichloro-benzamide] | – | > 50% and 75% | > 20 | – |
| COc1cccc(CSCCNC(=O)c2c(Cl)cccc2Cl)c1OC [Compound 52, 2,6-Dichloro-N-[2-(2,3-dimethoxy-benzylsulfanyl)-ethyl]-benzamide] | – | 57.8% | – | – |
| O=C(NCCSCc1cccc(I)c1)c1c(Cl)cccc1Cl [Compound 53, 2,6-Dichloro-N-[2-(3-iodo-benzylsulfanyl)-ethyl]-benzamide] | 1.1 | > 50% and 84.4% | – | – |
| O=C(NCCSCc1cccc(Cl)c1)c1c(Br)cccc1Br [Compound 54, 2,6-Dibromo-N-[2-(3-chloro-benzylsulfanyl)-ethyl]-benzamide] | – | > 50% and 74.2% | > 20 | – |
| O=C(NCCSCc1cccc(Br)c1)c1c(Br)cccc1Br [Compound 55, 2,6-Dibromo-N-[2-(3-bromo-benzylsulfanyl)-ethyl]-benzamide] | – | > 50% and 78.6% | > 20 | – |
| O=C(NCCSCc1ccccc1)c1c(Cl)cccc1Cl [Compound 65, N-(2-Benzylsulfanyl-ethyl)-2,6-dichloro-benzamide] | – | 51.6% | – | – |
| COc1cc(Cl)cc(CSCCNC(=O)c2c(Cl)cccc2Cl)c1 [Compound 73, 2,6-Dichloro-N-[2-(3-chloro-5-methoxy-benzylsulfanyl)-ethyl]-benzamide] | – | 67.7% | – | – |
| O=C(NCCSCc1ccccc1Cl)c1c(Cl)cccc1Cl [Compound 76, 2,6-Dichloro-N-[2-(2-chloro-benzylsulfanyl)-ethyl]-benzamide] | 31.6 | > 50% and 75.6% | – | 48.8 |
